Experimental data published in the supplement of paper PMC3334620.
Over roughly 33,000 sequences, “E-score (-0.5 to 0.5)” has its median near -0.04; the highest 2% begin near 0.36. The list shows a part of the results.

These sequences were tested against T1, Hmlalpha2 (UniProt P0CY09) (assay: PBM E-score (8-mer binding enrichment) (E-score (-0.5 to 0.5)); higher = stronger / more preferred TF binding; most listed sequences are background and not binding sites). Conditions: protein concentration: 200 nM; construct: GST-full length.
T1 sequence: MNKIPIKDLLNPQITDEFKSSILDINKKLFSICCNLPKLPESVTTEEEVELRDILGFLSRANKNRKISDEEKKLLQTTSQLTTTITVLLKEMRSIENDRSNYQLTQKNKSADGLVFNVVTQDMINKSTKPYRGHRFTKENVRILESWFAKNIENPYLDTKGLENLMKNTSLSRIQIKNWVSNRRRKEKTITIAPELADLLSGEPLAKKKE
Description: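 Universal 'all 10-mer' protein binding microarrays (Agilent AMADID 015681) probed with GST-tagged S. cerevisiae TFs (full-length or DBD) made by in vitro transcription/translation (PURExpress), about 100-200 nM. Bound TF was detected with fluorescent anti-GST. Each ungapped 8-mer (which stands for itself and its reverse complement) is scored by the PBM enrichment score (E-score), a modified Wilcoxon-Mann-Whitney statistic from -0.5 to +0.5, computed with the Universal PBM Analysis Suite. Scale: above 0.35 generally sequence-specific binding.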

Row | Sequence | PBM E-score
1 | ATCGCTGA | -0.163
2 | CAAGAGAC | -0.14
3 | ACATAGAT | 0.294
4 | CGCGGCGC | -0.0489
5 | CCCCTTTC | -0.262
6 | CCCCACAC | -0.298
7 | TTCAGCAA | 0.068
8 | ACAACCGC | 0.135
9 | TATCGGCA | -0.136
10 | CCCCAATC | -0.116
11 | ACTCGGAA | -0.0153
12 | CGGGAGTA | -0.023
13 | GCAACAGC | 0.0181
14 | ACCGCTCA | 0.0701
15 | GGGCCCAC | -0.224
16 | ATTTCGAC | 0.124
17 | CGTCGCTC | -0.218
18 | AATTTGAT | -0.118
19 | AAGAGCGA | -0.2
20 | GCAATCCA | -0.0623
21 | GAAACTCA | 0.0193
22 | GTCATGAC | 0.0573
23 | ACCCTAGT | -0.02
24 | CGAAACAA | 0.141
25 | ACCAAATG | -0.0992

Row | Sequence | PBM E-score
26 | CGACTGCG | -0.0586
27 | GGGGTGCA | -0.335
28 | ACCATATA | 0.113
29 | CGGATAAG | -0.258
30 | AATCTCGA | -0.022
31 | CGTGGCCC | -0.235
32 | GCTCCAGC | -0.198
33 | GCCACGGC | -0.192
34 | AGTCGTAA | 0.146
35 | GGGAGCAA | -0.18
36 | GAAGCTCC | -0.218
37 | CCCAAGCA | -0.123
38 | CATACAGC | -0.129
39 | AAAACCAC | 0.00461
40 | GCGCGTGA | 0.134
41 | GGGTACAC | 0.0689
42 | ACACTAGG | 0.0823
43 | CTCCATAC | -0.168
44 | GACGCTTA | -0.0245
45 | GGCACGGA | -0.158
46 | CCTCTCTA | -0.308
47 | CTCTTGTA | 0.299
48 | GGATAATA | 0.0328
49 | AAGGTGAC | -0.0962
50 | AAAGATTC | 0.196

Row | Sequence | PBM E-score
51 | CTAACATA | 0.273
52 | GTCGCAAC | 0.0502
53 | GATTCCAC | -0.0363
54 | AGGACCAC | -0.149
55 | ACGTAGAT | 0.267
56 | CACAAAGA | 0.152
57 | GGCTTCGA | -0.126
58 | CGCGCCAG | -0.117
59 | ACCTCGTC | -0.13
60 | GGCGGGAC | -0.194
61 | GTCCTTTA | -0.00742
62 | GTGCCTCA | -0.299
63 | GGTGGAAA | -0.239
64 | TATCCAAA | 0.121
65 | TCTGATAA | -0.0586
66 | GCTAAAGA | 0.131
67 | GGTAAAAA | 0.265
68 | ACTGTCGC | -0.165
69 | AAGGACAC | 0.0292
70 | CACGCGGC | 0.0499
71 | CGATGGGC | -0.218
72 | ATGAGCTC | -0.0421
73 | CAATACTC | 0.119
74 | CTAGAAAA | -0.0454
75 | CTCTGTTC | -0.0134

Row | Sequence | PBM E-score
76 | GGGCTCGA | -0.0921
77 | AAAATTGG | -0.167
78 | CCGTTGTC | 0.0589
79 | ACGGCTAT | 0.0646
80 | CACGGCGC | 0.122
81 | GGTGGTTA | -0.146
82 | GAATTAAC | 0.309
83 | CAGTAGAC | 0.00055
84 | CTGGTTGC | 0.0155
85 | AACACAGA | 0.35
86 | CCCCCGAA | -0.18
87 | AGCCACTG | -0.148
88 | CATCCTAC | -0.116
89 | GAATCTAA | 0.109
90 | GCGATTTA | -0.00092
91 | GATAGGGC | -0.401
92 | AGCTGGCC | -0.0784
93 | AAAGGAAT | 0.0205
94 | GAGCCTCA | -0.436
95 | GGTTGCAC | 0.0404
96 | GCCGGAAA | -0.207
97 | TAGTCACA | 0.0266
98 | CCCGTATC | -0.2
99 | CTAAGGAG | -0.315
100 | ATCCCCAA | 0.0947

Row | Sequence | PBM E-score
101 | ATAGAAAT | 0.0699
102 | CGACTATC | -0.104
103 | AATCTGAC | 0.0953
104 | AGTGATTA | 0.0733
105 | CCCTCCGA | -0.229
106 | GGCTCTCA | -0.207
107 | CATACTTA | 0.217
108 | TAGGGCGA | -0.216
109 | CAAGTCTA | -0.0401
110 | CCTGGTCC | -0.362
111 | TAATGAGA | 0.0766
112 | CCTATTCG | -0.25
113 | CTCTGATA | -0.0582
114 | CGCGCAGC | -0.0062
115 | AAGATCAG | -0.187
116 | ACTCGGTA | -0.1
117 | TAGCCCTA | -0.152
118 | CTGTGTCC | 0.0461
119 | ACTCTAGC | -0.238
120 | CTTTTCTC | -0.0849
121 | AAAGTCGA | -0.0831
122 | GAGCACGC | -0.0454
123 | AATCATAC | 0.195
124 | AACACGCT | 0.387
125 | ACCGTCTA | -0.225

Row | Sequence | PBM E-score
126 | GTCCCGAA | -0.186
127 | AAGACACA | 0.183
128 | AAATATCT | 0.00858
129 | CAGCATGA | -0.0607
130 | ACCGGGTA | 0.0154
131 | ATATATAT | 0.303
132 | GCTCACAA | -0.131
133 | ATATCAAC | 0.115
134 | ACCGCGTG | 0.108
135 | CTAGGCTC | -0.193
136 | CGTCCAAC | 0.184
137 | CGATGTCA | 0.144
138 | ACGTCTCT | -0.0679
139 | CCATCATC | -0.119
140 | AACGCTAG | 0.0508
141 | TCCAGGCA | -0.0301
142 | AGAACGAG | 0.164
143 | GTGCCCAC | -0.282
144 | CCAAGTAA | 0.292
145 | CTTTTAGA | -0.0975
146 | AGAGTTAT | -0.0492
147 | GACGAGTA | 0.0254
148 | CCCCCGCC | -0.366
149 | GACACAGC | 0.198
150 | CCGTCCTC | -0.274

Row | Sequence | PBM E-score
151 | AACCTTTA | -0.0633
152 | AAACCGGA | -0.0516
153 | CTTACGGC | -0.301
154 | CTGGCGCA | -0.288
155 | GCTTTGCA | -0.106
156 | AACACCCC | -0.0358
157 | CACCCGCC | -0.0238
158 | GAAAAACA | 0.169
159 | CGGGAAGC | -0.026
160 | GGAACTAC | 0.123
161 | ACCTCAAA | -0.123
162 | TAGGAGGA | -0.0737
163 | CCCTGGCA | -0.24
164 | ACTTACGA | 0.228
165 | AGGGTGGA | -0.398
166 | ATAGTATG | 0.0185
167 | CAGTGTAG | 0.243
168 | ATAACCTC | 0.0724
169 | GACGATAC | 0.063
170 | TCATAGAA | -0.0273
171 | GAAAGTAC | 0.0263
172 | CCACATAC | 0.122
